Experimental data published in PubChem BioAssay AID2100 (National Center for Advancing Translational Sciences (NCATS), 2009).
Screen size: about 300,000 compounds; about 1,200 (0.4%) were called active. This list was built around the results that the source calls inconclusive (neither active nor inactive); the mix of calls is not that of the screen. The call rests on the fitted dose curve; in most records, active means well fitted inhibition curve with a large enough effect; inconclusive means small, poorly fitted or top-dose-only effect, or another doubt; inactive means no such curve, though single readings can be large or run the other way. Where the call is inconclusive, the potency comes from a doubtful curve fit.

Each compound was assayed against Lysosomal alpha-glucosidase (Homo sapiens) (UniProt P10253) (assay: qHTS Assay for Inhibitors and Activators of Human alpha-Glucosidase Cleavage of Glycogen). Details: recombinant GAA, glycogen substrate, Amplex Red glucose oxidase fluorescence; activity change, negative = inhibition: at 76.4 µM (top of the series) unless noted.
Procedure, shortened: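 Natural-substrate format: glycogen cleavage by 4 nM human enzyme, glucose read by Amplex Red coupling (Ex 573, Em 610 nm). Normalized to enzyme and no-enzyme controls.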
Potency means the concentration at half of the fitted maximal effect.
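Wherever activity change, negative = inhibition is given: 0% = full enzyme reaction and -100% = no-enzyme basal signal.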

Structure (SMILES)	Potency	activity change, negative = inhibition
Cc1ccn2c(C(=O)N/N=C/c3ccc(Cl)cc3)c(C)nc2c1	inactive	–
Cc1ccc(-n2[nH]c(C)c(/C=N/Nc3ccc([N+](=O)[O-])cc3[N+](=O)[O-])c2=O)cc1C	inconclusive: 20 µM [inhibitor, partial curve]	–
c1ccc(-c2noc(-c3cccnc3)n2)nc1	inactive	–
O=S(=O)(c1ccccc1)c1ccc(NCc2ccco2)cc1	inactive	–
Cc1ccsc1/C=N/Nc1nc2ccccc2[nH]1	active: 6.31 µM	–
CCN1CCN(c2cc(C)c3cc(NC(=O)/C=C/c4cccc(Cl)c4)ccc3n2)CC1	inactive	–
COc1ccc(OC)c2c(C)c(C)[nH]c12	inconclusive: 25.1 µM [inhibitor, partial curve]	–
NNC(=O)c1csc(-c2ncc(C(F)(F)F)cc2Cl)n1	inconclusive: 31.6 µM [inhibitor, partial curve]	–
COCCCN1C(=O)c2[nH]nc(-c3cc(C)cc(C)c3O)c2C1c1ccc(O)c(OC)c1 (configuration not stated)	inconclusive: 35.5 µM [inhibitor, single point]	–
CCOC(=O)N1CCC(=NNc2nc3ccccc3s2)CC1	inconclusive: 3.52 µM [inhibitor, full curve]	–
Cc1cccc(-c2nc(C#N)c(NCC3CCCO3)o2)c1 (configuration not stated)	inconclusive: 39.8 µM [inhibitor, single point]	–
CCOc1ccc(N(CC)S(=O)(=O)N2CCCC(C(=O)NCc3ccc(SC)cc3)C2)cc1 (configuration not stated)	inactive	–
Cc1ccc(C)c(CN2C(=O)c3ccccc3S(=O)c3ccc(C(=O)NCCc4ccc(Cl)cc4)cc32)c1 (configuration not stated)	inconclusive: 50.1 µM [inhibitor, single point]	–
COc1ccc(N=C2NN=C(c3ccc4c(c3)OCCO4)CS2)cc1	inconclusive: 17.6 µM [inhibitor, partial curve]	–
CC(C)CN(CC(C)C)S(=O)(=O)c1cc([N+](=O)[O-])ccc1N1CCCCCC1	inconclusive: 39.5 µM [inhibitor, single point]	–
Cc1nc2cc(C(=O)O)ccc2n1-c1ccc(C(C)C)cc1	inactive	–
CCOc1ccc(-n2nnc3c(=O)n(CC(=O)Nc4cc(C)on4)cnc32)cc1	inactive	–
COc1ccc(OCC(=O)NCCCn2ccnc2)cc1	inconclusive: 44.7 µM [inhibitor, single point]	–
O=C(NCC(=O)N(Cc1cccs1)C(C(=O)NC1CCCCC1)c1ccncc1)c1ccco1 (configuration not stated)	inconclusive: 50.1 µM [inhibitor, single point]	–
Nc1cccc(Nc2ccccc2)c1	inconclusive: 22.4 µM [inhibitor, partial curve]	–
CCOC(=O)C1=NN(C(=O)c2ccc(C)cc2)C(O)(c2ccc(Cl)cc2)C1 (configuration not stated)	inconclusive: 31.4 µM [inhibitor, partial curve]	–
NS(=O)(=O)c1ccc(CCNC(=O)Nc2ccc(Cl)cc2)cc1	–	inconclusive: 30.5% [activator]
Nc1nnc(SCC(=O)c2ccccc2)s1	inactive	–
Cc1cc(C(=O)NNc2c(Cl)cccc2Cl)n(C(C)(C)C)n1	inconclusive: 28.2 µM [inhibitor, partial curve]	–

Structure (SMILES)	Potency	activity change, negative = inhibition
O=C(CSc1nc2cc(Cl)c(Cl)cc2[nH]1)c1ccc2c(c1)OCO2	inactive	–
Oc1ccccc1N=Cc1ccc[nH]1	active: 2.82 µM	–
Cc1ccc(Nc2c(-c3ccc(C)s3)nc3ncccn23)cc1	inconclusive: 20 µM [inhibitor, partial curve]	–
Nc1ccc2nc(-c3ccccc3)[nH]c2c1	inconclusive: 31.4 µM [inhibitor, single point]	–
Cc1cc(OCCn2cc(/C(N)=N/O)c3ccccc32)ccc1Cl	active: 17.8 µM	–
COC(=O)c1cc(Cl)ccc1NC(=O)CSc1ncc(S(=O)(=O)c2ccc(Br)cc2)c(=O)[nH]1	inactive	–
CC(C)CC1Nc2ccc(C(=O)NCCCN3CCCCC3C)cc2NC1=O (configuration not stated)	active: 12.6 µM	–
NNC(=O)C1=NOC(CNc2ncc(C(F)(F)F)cc2Cl)C1 (configuration not stated)	inconclusive: 31.6 µM [inhibitor, single point]	–
COC(=O)c1cc(NCc2ccc3c(c2)OCO3)ccc1N1CCOCC1	inconclusive: 12.6 µM [inhibitor, partial curve]	–
CC(=O)/C(N=Nc1c(C)n(C)n(-c2ccccc2)c1=O)=C(\C)O	inconclusive: 14.1 µM [inhibitor, partial curve]	–
Nc1nc(-c2ccccc2)c(-c2ccccc2)s1	inactive	–
O=C(CCN1CCC(c2cccs2)=N1)c1cccs1	inconclusive: 5.62 µM [inhibitor, full curve]	–
CCOC(=O)c1cnc2ccc(C)cc2c1Nc1ccc(N(CC)CC)cc1	inconclusive: 14.1 µM [inhibitor, partial curve]	–
COc1ccc(CNc2ncc(-c3ccccc3)n2C)cc1	inconclusive: 28.2 µM [inhibitor, single point]	–
O=c1[nH]c2ccc(NCc3ccc(-c4ccccc4)o3)cc2[nH]1	inconclusive: 1.26 µM [inhibitor, full curve]	–
N#CC1=C(N)NC(=S)C(C(N)=O)C1c1ccccc1F (configuration not stated)	inconclusive: 14.1 µM [inhibitor, partial curve]	–
C/C(=N\NC(=S)NCCc1ccccc1)c1ccc(Cl)cc1	inconclusive: 31.6 µM [inhibitor, single point]	–
Oc1ccccc1Nc1nc(NCC2CCCO2)c2ccccc2n1 (configuration not stated)	active: 8.84 µM	–
COc1cc(CNCCSc2nnnn2C)ccc1OCc1ccc(C)cc1	inconclusive: 5.62 µM [inhibitor, partial curve]	–
C[n+]1ccc(C(=O)N/N=C/c2ccco2)cc1	inconclusive: 24.9 µM [inhibitor, single point]	–
CCNC(=S)NNC(=O)c1cccs1	inconclusive: 22.2 µM [inhibitor, single point]	–
CCOC(=O)c1nc(NNC(C)=O)sc1C	inconclusive: 7.08 µM [inhibitor, full curve]	–
Cc1ccc(NC(=O)c2[nH]cnc2C(=O)NN)cc1	active: 20 µM	–
COc1ccc(-c2cc(N3C(=O)Nc4ccccc4N3O)n[nH]2)cc1OC	inconclusive: 35.5 µM [inhibitor, partial curve]	–

Structure (SMILES)	Potency	activity change, negative = inhibition
CCc1ccc(NC(=O)N(CCN2CCOCC2)Cc2ccc3c(c2)CCCN3CC)cc1	active: 11.1 µM	–
C/C(=N\Nc1nccnc1Cl)c1ccc(F)cc1	inconclusive: 15.7 µM [inhibitor, partial curve]	–
Cc1coc2cc3oc(=O)c(CCC(=O)NCc4ccccc4Cl)c(C)c3cc12	inactive	–
CCOC(=O)c1c(NC(=O)CNCC(O)CO)sc(C)c1C (configuration not stated)	inconclusive: 39.5 µM [inhibitor, single point]	–
CO/N=C/C(C#N)c1ncc(C(F)(F)F)cc1Cl (configuration not stated)	inconclusive: 22.2 µM [inhibitor, partial curve]	–
COc1cc(-c2n[nH]c(=S)n2-c2cccc(C(F)(F)F)c2)cc(OC)c1OC	inconclusive: 22.2 µM [inhibitor, single point]	–
CC(C)n1cnc2cc(NCc3ccccn3)ccc21	inconclusive: 3.95 µM [inhibitor, partial curve]	–
CCN(CC)c1ccc(/C=N/NC(=S)NCc2ccc(OC)cc2)cc1	inconclusive: 50.1 µM [inhibitor, single point]	–
CCN(Cc1ccncc1)Cc1c(O)ccc2ccccc12	inconclusive: 31.4 µM [activator, single point]	–
CC1CC2=C(CC1/C=N/NC(N)=S)C(C)(C)CCC2 (configuration not stated)	inconclusive: 56.2 µM [inhibitor, single point]	–
Cc1ccc(-c2csc(=Nc3ccccc3)n2Cc2ccc3c(c2)OCO3)cc1	inactive	–
O=C(NNC(=S)Nc1ccc(Cl)c(Cl)c1)c1ccccn1	inconclusive: 35.2 µM [inhibitor, partial curve]	–
COc1ccc(NC2CCCN(C(=O)c3ccccc3N3CCOCC3)C2)cc1OC (configuration not stated)	inconclusive: 11.2 µM [inhibitor, single point]	–
CCC(C)(C(=O)NC1CCCC1)N(C(=O)CNC(=O)c1ccccc1)c1c(C)n(C)n(-c2ccccc2)c1=O (configuration not stated)	inconclusive: 50.1 µM [inhibitor, single point]	–
Cc1ccc(NC(=S)NNC(=O)c2ccco2)cc1	inconclusive: 28.2 µM [inhibitor, partial curve]	–
COc1ccc(OC)c(N=C2C(=O)Nc3ccccc32)c1	active: 31.4 µM	–
COc1ccc2c(c1)c(/C=N/Nc1nc3ccccc3[nH]1)c(C)n2C	active: 28.2 µM	–
Cc1ccc(S(=O)(=O)Nc2cc(C(=O)NCCN(C)C)ccc2N2CCCCC2)cc1	inconclusive: 24.9 µM [inhibitor, single point]	–
Cc1ccc(C(=O)NC2(C(F)(F)F)N=C(c3ccccc3)N(Cc3ccccc3)C2=O)cc1 (configuration not stated)	inactive	–
COc1cc(/C=N/NC(=S)NCC2CCCO2)cc(OC)c1OC (configuration not stated)	inconclusive: 35.5 µM [inhibitor, single point]	–
COc1ccc(-c2noc(N3CCN(c4ccc(Cl)cc4)CC3)n2)cc1OC	inconclusive: 11.2 µM [inhibitor, single point]	–
CCN1CCc2c(sc(NC(=S)NC(=O)c3ccco3)c2C(N)=O)C1	inconclusive: 39.8 µM [inhibitor, partial curve]	–
CCCCN(CC)C(=S)Nc1ccc2nc(N3CCN(C)CC3)cc(C)c2c1	inconclusive: 25.1 µM [inhibitor, partial curve]	–
CSc1ccc(/C=N\Nc2nncn2N)cc1	inconclusive: 50.1 µM [inhibitor, single point]	–
